According to PubChem BioAssay AID1745853 (National Center for Advancing Translational Sciences (NCATS), 2022):
The list shows a part of the results. These are further read-outs of the screen, such as a control signal, another cell line or another target. No call is given for them.

Tests used:
Experiment in all cases: Primary Screen for Target Class Profiling of Small Molecule Inhibitors of Methyltransferases
[1] = biological target: Glycine N-methyltransferase (Homo sapiens) (UniProt Q14749); details: purified enzyme, MTase-Glo SAH luminescence; measured here: GNMT inhibition; at 40 µM; stronger effect = lower value
How it was run: (§1)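 Each enzyme was reacted with SAM and its substrate, with compounds tested once at 40 uM; SAH formed was read by MTase-Glo luminescence.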

[2] = biological target: Guanidinoacetate N-methyltransferase (Homo sapiens) (UniProt Q14353); details: purified enzyme, MTase-Glo SAH luminescence; measured here: GAMT inhibition; at 40 µM; stronger effect = lower value
How it was run: as §1

[3] = biological target: Histamine N-methyltransferase (Homo sapiens) (UniProt P50135); details: purified enzyme, MTase-Glo SAH luminescence; measured here: HNMT inhibition; at 40 µM; stronger effect = lower value
How it was run: as §1

[4] = biological target: Nicotinamide N-methyltransferase (Homo sapiens) (UniProt P40261); details: purified enzyme, MTase-Glo SAH luminescence; measured here: NNMT inhibition; at 40 µM; stronger effect = lower value
How it was run: as §1

[5] = biological target: Phenylethanolamine N-methyltransferase (Homo sapiens) (UniProt P11086); details: purified enzyme, MTase-Glo SAH luminescence; measured here: PNMT inhibition; at 40 µM; stronger effect = lower value
How it was run: as §1
% is set by controls: 0 for no effect and ±100 for the full control effect.

Structure (SMILES)	activity change, negative = inhibition [1] [%]	activity change, negative = inhibition [2] [%]	activity change, negative = inhibition [3] [%]	activity change, negative = inhibition [4] [%]	activity change, negative = inhibition [5] [%]
CO[C@@H]1CO[C@H]2[C@@H]1OC[C@@H]2NC(=S)Nc1ccccc1	-2.39	-2.58	0.7	-5.86	-1.92
CCCn1c(=O)c2ccc(C(=O)NC(C)CC)cc2n2c(=O)n(CC(=O)Nc3ccc(C)cc3C)nc12 (stereo not given)	-6.76	-2.94	-8.73	-9.58	-5.77
COC[C@@H]1CN(S(=O)(=O)c2ccccc2C)C[C@H]1c1nc(C)no1	3.05	-1.56	1.61	-2.9	0.204
CCCN(Cc1ccc(F)cc1)C(=O)c1cnc(-c2ccc(C)cc2)[nH]c1=O	-8.94	-4.61	-0.507	-6.74	1.06
CCC[C@@H]1CN(C(=O)CCn2cc(Cl)cn2)C[C@H]1C(=O)O	-0.752	1.13	1.27	-0.589	2.47
CC(C)CN1CCN(C(=O)c2ccc3c(c2)CC(=O)N3Cc2ccc(F)cc2)CC1	-4.56	0.209	-13.9	-11.6	-5.36
COCCCN1CC2(CCN(C(=O)c3cc(C(C)C)oc3C)CC2)CC1=O	-1.2	-0.043	3.25	2.71	2.81
COc1ccccc1OCC(O)CN1CCN(CC(=O)Nc2c(C)cccc2C)CC1 (stereo not given)	2.96	7.74	7.71	-7.28	0.412
CC1(C)C(=O)Nc2ccc(S(=O)(=O)N3CCCC(c4nn[nH]n4)C3)cc21 (stereo not given)	-4.19	-2.49	1.35	-6.24	-0.885
Cc1coc2c1CC1OC1(C)CCC1OC1(C)C2 (stereo not given)	-0.16	-3.06	8.94	-13.7	2.03
O=[N+]([O-])c1cccc2cn[nH]c12	-8.03	14.9	5.71	-26.9	5.12
Cc1nnc2n1CCC(NC(=O)c1cccn1C)CC2 (stereo not given)	-3.83	-2.46	-1.99	-5.44	-6.34
CC(C)CC(=O)O[C@@H]1O[C@H](CO)[C@@H](O[C@H]2O[C@H](C)[C@@H](N[C@H]3C=C(CO)[C@@H](O[C@H]4O[C@H](CO)[C@@H](O[C@H]5O[C@H](CO)[C@@H](O[C@H]6O[C@H](CO)[C@@H](O)[C@H](O)[C@H]6O)[C@H](O)[C@H]5O)[C@H](O)[C@H]4O)[C@H](O)[C@H]3O)[C@H](O)[C@H]2O)[C@H](O)[C@H]1O	2.7	0.366	-2.77	-10.3	1.66
C=CCCC(CN1CCOCC1)Oc1ccc(Cn2ccnc2)cn1 (stereo not given)	-2.54	-4.89	-2.36	-6.51	-0.568
CCCn1c(=O)c2ccc(C(=O)NC(C)C)cc2n2c(=O)n(CC(=O)NCc3ccc(Cl)cc3)nc12	0.554	0	1.09	-6.7	-2.88
C/C1=C\CCC(C)CCO[C@@H]2O[C@H](CO[C@@H]3OC[C@H](O)[C@H](O)[C@H]3OC1=O)[C@@H](O)[C@H](O)[C@H]2O (stereo not given in full)	2.37	-0.888	7.23	-12	-8.57
COc1cc(/C=C(\C#N)C(=O)Nc2nnc(C(F)(F)F)s2)ccc1OCc1ccc(C(F)(F)F)cc1C(F)(F)F	-25.5	0.961	-10.3	-20.6	-1.12
CCCCc1cc(C[C@@H]2C[C@H](NC(=O)NCC)C2(C)C)no1	-6.04	-7.67	-2	-8.17	-3.8
CC1=CC2/C=C(\C)CCC(O)C/C=C/C(=O)OC23C(=O)NC(CC(C)C)C3C1C (stereo not given)	-7.68	6.99	6.17	-7.67	-5.01
CC(C)C(=O)N1CCC(NCCOc2ccccc2Cl)CC1	-1.65	1.37	-1.8	-4.93	-8
CC1(C(=O)NC2CCCCC2)Cn2c(cc3sccc32)C(=O)N1Cc1ccccn1 (stereo not given)	5.73	3.17	7.62	4.22	4.44
CC1(C(=O)NC2CCCCC2)Cn2c(cc3ccccc32)C(=O)N1Cc1ccc2c(c1)OCO2 (stereo not given)	-14.9	-1.67	-7.77	-18.2	-6.87
CN(Cc1cccn1C)C(=O)c1ccccc1F	-2.39	-3.33	-0.938	-13.5	-18.9
CCOC(=O)c1cc2n(n1)CC(C)(C(=O)NC1CCCCC1)N(c1ccccc1F)C2=O (stereo not given)	1.75	0	-4.68	7.03	1.56
COc1ccc(C(=O)N2CCCCC(NC(=O)NCc3ccco3)C2)cc1 (stereo not given)	-1.69	-4.41	-8.38	-5.27	-3.96
Cc1nnc2n1CCC(NC(=O)c1cnccn1)CC2 (stereo not given)	-2.47	-1.26	-1.8	-4.76	2.8
CCc1ccc(S(=O)(=O)c2nnn3c2nc(NCCCOC(C)C)c2cc(Cl)ccc23)cc1	-11.3	2.09	-6.64	-6.44	-6.84
CCCNCC(O)COc1ccccc1C(=O)CCc1ccccc1 (stereo not given)	2.31	13.1	-5.48	-3.75	8.74
O=C(Nc1ccc(Cl)cc1F)c1ccccc1O	1.39	2.7	7.99	-12.4	2.04
